# Assay results taken from PMC11152714 (The Journal of Biological Chemistry, 2024).
# Molecular target: T1, sYeGT (Yersinia enterocolitica, UniProt A0AAT8XUD0)
# T1 construct: YeGT shortened by 16 N-terminal residues (printed as 279 residues, but 313-16 = 297); E. coli expression, His tag removed by TEV leaving Gly-Ser-Met (crystals)
# Assay: X-ray crystal structure, […] A
# Type: binding
# Conditions: Mn2+; pH 7.5; crystallised with UDP-GlcNAc, which was hydrolysed; partial Cd2+ on the diphosphate
compound,measurement,value
O=c1ccn([C@@H]2O[C@H](COP(=O)(O)OP(=O)(O)O)[C@@H](O)[C@H]2O)c(=O)[nH]1 [UDP],"X-ray crystal structure, 1.12 A",only the UDP moiety was visible in the electron density map
